Hit rate of the full screen: of about 52,000 compounds, about 1,700 (3.3%) were called active. No stated cut-off is given here; in the data, active means survival mostly below about 52% (no sharp cut-off); inactive means mostly above about 56%. The list shows a part of the results.
What follows are compounds tested on Wild type (assay: S. aureus survival, RN4220 and DeltatarO strains – OD600, teichoic acid synthesis inhibitors, primary screen (AID 463173)). Settings: S. aureus RN4220 wild type/DeltatarO growth, OD600, 18 h, active compounds read low, screened at 18.75 µg/mL (by protocol).

Structure (SMILES)	survival
COc1cccc(CNC(=O)C2CCN(S(=O)(=O)c3ccc4c(ccn4C)c3)CC2)c1	inactive: 55%
COc1ccc(-c2cn3cccnc3n2)cc1NC(=O)c1c(F)cccc1F	inactive: 70%
CSc1ccc(C2c3[nH]c4ccccc4c3CCN2C(=O)CCc2ccccc2)cc1 (stereo not given)	inactive: 85%
COc1cc(Cl)c(C)cc1NC(=O)CCn1c(=O)c2cccn2c2cccnc21	inactive: 92%
CC(C)c1nc2ccc(C(=O)NCc3ccc(N(C)C)cc3)cc2o1	inactive: 77%
CCOC(=O)N1CCN(c2ncnc3c2cnn3-c2ccccc2)CC1	inactive: 112%
Cc1ccc(-n2nc3c(=O)n(CCCC(=O)NCCc4ccccc4)nc(C)c3c2C)cc1	inactive: 121%
Cc1cccc(CCNC(=O)CCS(=O)(=O)c2cc3c(cc2Cl)NC(=O)CO3)c1	inactive: 99%
COc1ccc(C)cc1Nc1nc2ccccc2c2nnc(C)n12	inactive: 125%
Cc1cccc(NC(=O)CSc2nc3c(oc4ccccc43)c(=O)n2Cc2ccco2)c1	inactive: 75%
CCOc1ccc(CNC(=O)CCC(=O)N2CC3CCCN3c3ccccc32)cc1 (stereo not given)	inactive: 101%
CCN1CCN(C(c2cccc(F)c2)c2c(O)cc(C)n(CCOC)c2=O)CC1 (stereo not given)	inactive: 89%
COc1ccc(Cl)cc1NC(=O)c1cc(S(=O)(=O)N2CCC(C)CC2)cn1C	inactive: 84%
CCc1nc2cccnc2n1-c1ccc(CC(=O)Nc2ccccc2Cl)cc1	inactive: 74%
COc1ccccc1-c1noc(CSc2nnc(Cc3ccccc3)n2-c2ccc(C)c(C)c2)n1	inactive: 57%
Cc1ccc(C)n1-c1nnc(N2CCC(C(=O)NCc3ccc(F)cc3)CC2)s1	inactive: 88%
CN(C)c1nc2ccc(OCCN3CCCCC3)cc2s1	inactive: 109%
CC(C)C(=O)Nc1ccc2nc(SCC(=O)N3CCOCC3)sc2c1	inactive: 88%
Cc1cc(NS(=O)(=O)c2ccc3nc(-c4ccccc4)[nH]c3c2)ccc1Br	active: -4%
Cc1ccc(N2CC(c3nnc(NC(=O)c4ccco4)s3)CC2=O)cc1Cl (stereo not given)	inactive: 88%
CCn1c(NCc2ccccc2)nc2ccccc21	inactive: 109%
O=S(=O)(c1ccc(Br)cc1)c1nnn2c1nc(NC1CCCCCC1)c1sccc12	inactive: 97%
CCOc1cc(S(=O)(=O)N2CCC(c3nc4ccccc4s3)CC2)c(OCC)cc1S(=O)(=O)N1CCOCC1	inactive: 109%

Structure (SMILES)	survival
Cc1ccc(-n2nc3ccc(NC(=O)c4cc5ccccc5o4)cc3n2)cc1	inactive: 80%
Cn1c(=O)c2sccc2n2c(CCC(=O)N3CCN(c4ccccc4)CC3)nnc12	inactive: 144%
COC(=O)C(Sc1nc(C)cc(C)c1C#N)c1ccccc1 (stereo not given)	inactive: 110%
C1CCC(N2CCC(N3CCCCC3)CC2)CC1	inactive: 105%
CCc1ccc(NC(=O)N2CCN(Cc3cc(=O)n4nc(-c5ccccc5OC)sc4n3)CC2)cc1	inactive: 74%
CCOC(=O)c1cccc(NC(=O)NCCc2c(C)nn(C)c2C)c1	inactive: 63%
Cc1cccc(C)c1OCCCCn1c(C2CC(=O)N(c3ccc(F)cc3)C2)nc2ccccc21 (stereo not given)	inactive: 34%
COC(=O)c1ccccc1NC(=O)c1noc2c1CSc1ccccc1-2	inactive: 83%
COc1ccc2nc(NC(=O)c3ccc(S(=O)(=O)N4CCC(C)CC4)cc3)sc2c1	inactive: 81%
O=S(=O)(NCC(c1ccco1)N1CCN(c2ccc(F)cc2)CC1)c1ccccc1 (stereo not given)	inactive: 55%
CCn1c(=N)c(C(=O)NCc2cccnc2)cc2c(=O)n3cc(C)ccc3nc21	inactive: 76%
COC(=O)c1cc2occc2n1CC(=O)Nc1cccc(SC)c1	inactive: 88%
COc1ccc(-c2cc(C(=O)Nc3cc(C)ccc3O)no2)cc1OC	inactive: 85%
COc1ccc(-c2nc(CSCC(=O)NCCc3ccc(C)cc3)c(C)o2)cc1OC	inactive: 72%
O=C(Cn1c(=O)sc2ccccc21)Nc1nc2c(s1)CCCC2	inactive: 125%
CCN(CC)CCCNC(=O)c1c(C)oc2ncnc(N3CCOCC3)c12	inactive: 136%
CCCCN(Cc1ccccc1)S(=O)(=O)c1ccc2c(c1)CC(C)N2C(=O)CC (stereo not given)	inactive: 96%
COc1ccccc1Cc1nc2ccccc2nc1SCC(=O)NCCc1ccccc1	inactive: 74%
Cc1c(C(=O)NCc2ccc(Cl)cc2)sc2nc3n(c(=O)c12)CCCC3	inactive: 107%
CCOc1ccc(CNC(=O)c2ccc(NC(=O)c3nsc4ccccc34)cc2)cc1	inactive: 71%
CCS(=O)(=O)c1ccccc1C(=O)N(Cc1cccnc1)c1nc2cc(C)c(C)cc2s1	inactive: 118%
CCOC(=O)Cn1cc2c(c1-c1ccc(Cl)cc1)c(=O)n(C)c(=O)n2C	inactive: 85%
CCc1noc2nc(C)n(CC(=O)O)c(=O)c12	inactive: 89%

Structure (SMILES)	survival
CN(C(=O)CSc1nc2ccccc2n1CC(=O)NCc1ccc(F)cc1)c1ccc(F)cc1	inactive: 121%
c1ccc(C(c2cccs2)c2c[nH]c3ccccc23)cc1 (stereo not given)	inactive: 17%
Cc1cccc(-n2c(=O)c3c(c4cc(C)ccc4n3C)n(CC(=O)Nc3ccccc3C(F)(F)F)c2=O)c1	inactive: 84%
Cc1ccc(CNc2ncnc3c2c(-c2ccccc2)cn3-c2cccc(Cl)c2)cc1	inactive: 69%
COc1ccc(-c2nc3n(n2)C(c2ccccc2F)C(C(=O)Nc2cccnc2)=C(C)N3)cc1OC (stereo not given)	inactive: 85%
Cc1ccc(-c2noc(CN(C3CCCCC3)S(=O)(=O)c3ccc(Cl)cc3)n2)cc1	inactive: 86%
CCCCN(C(=O)c1cccc(S(=O)(=O)N2CCCCC2)c1)C1CCS(=O)(=O)C1 (stereo not given)	inactive: 127%
COc1ccc(C2CC(=O)c3c([nH]c(C(=O)OC4CCC(C)CC4)c3C)C2)cc1OC (stereo not given)	inactive: 79%
O=C(Nc1ccc(F)c(Cl)c1)N1CCN2CCCCC2C1 (stereo not given)	inactive: 66%
COCCCNC(=O)c1sc2ncccc2c1-n1cccc1	inactive: 78%
CCc1cccc2sc(N3CCN(C(=O)C4CC4)CC3)nc12	inactive: 87%
Cc1cc(NC(c2nnc(-c3ccccc3)o2)c2ccccc2F)ccc1Br (stereo not given)	active: 9%
CCN(CC)c1ccc(-c2nc(-c3ccncc3)no2)cc1[N+](=O)[O-]	inactive: 84%
Cc1ccc2cccc(NC(=O)c3cccc4ccccc34)c2n1	active: -10%
COc1ccc(NCc2ccccc2-c2nnc(-c3ccccc3)o2)cc1Cl	inactive: 90%
Cc1sc2nc(SCC(=O)N(CCO)CCO)n(C3CCCCC3)c(=O)c2c1C	inactive: 106%
CC(C)(C)OC(=O)N1CCC(c2c(C(=O)N3CCc4ccccc4C3)cnn2-c2ccc(Cl)cc2)CC1	inactive: 81%
CCOc1ccccc1C(=O)N(Cc1ccc(N(C)C)cc1)CC1CCCO1 (stereo not given)	inactive: 86%
CCS(=O)(=O)Nc1cc(-c2cn3ccc(C)cc3n2)ccc1C	inactive: 78%
CCN1C(=O)c2cccc3c(S(=O)(=O)Nc4ccc(O)c(C(=O)O)c4)ccc1c23	inactive: 76%
Cc1cc(C)cc(C(=O)N2CC(=O)Nc3ccc(C)cc3C2c2ccccc2)c1 (stereo not given)	inactive: 74%
CCCCNC(=O)CSc1nc2cc3c(cc2c(=O)n1CCCC(=O)NCc1ccc2c(c1)OCO2)OCO3	inactive: 87%
CCOc1ccc2[nH]c(=O)c(CN(CCOC)C(=O)Nc3ccccc3C)cc2c1	inactive: 115%

Structure (SMILES)	survival
Cc1ccc(CN(C(=O)c2ccc(C(C)(C)C)cc2)c2ccccn2)o1	inactive: 86%
COc1ccccc1NC(=O)CSc1ncc2c(n1)-c1ccccc1N(Cc1ccccc1C)S2(=O)=O	inactive: 75%
CC(C)CC(=O)Nc1ccc2nc(SCC(=O)N3CCc4ccccc43)sc2c1	inactive: 102%
CCOc1ccccc1CNC(=O)c1sc2ncccc2c1-n1cccc1	inactive: 95%
Cc1nonc1C(=O)NCC(=O)O	inactive: 91%
CCOc1cc(C2c3c(-c4cc(C)ccc4O)n[nH]c3C(=O)N2CCCOC(C)C)ccc1O (stereo not given)	inactive: 105%
COc1cccc(Cn2c(SCC(=O)N3CCN(c4ccc(F)cc4)CC3)nc3ccccc32)c1	inactive: 66%
O=C(COC(=O)c1cc(-c2cccs2)nc2ccccc12)c1ccc(F)cc1	inactive: 65%
O=C(CSc1nnc(-c2ccc3c(c2)OCO3)o1)Oc1ccccc1	inactive: 85%
CCn1ccc2cc(S(=O)(=O)N3CCCN(C(=O)Nc4ccccc4F)CC3)ccc21	inactive: 78%
CCOc1ccc(-n2c(SCC(=O)Nc3cc(C)ccc3C)nc3c([nH]c4ccccc43)c2=O)cc1	inactive: 59%
CCC(C)n1c(=O)c2sccc2n2c(CCCC(=O)N3CCN(c4ccccc4)CC3)nnc12 (stereo not given)	inactive: 97%
O=C(Cn1c(=O)n(Cc2nc(-c3ccccc3)no2)c(=O)c2cc3c(cc21)OCO3)Nc1ccccc1	inactive: 84%
O=C(Nc1cc(-c2ccccc2)sc1C(=O)O)c1cccc(F)c1	inactive: 80%
C/C(=N\NC(=O)c1ccco1)c1ccc(C)o1	inactive: 122%
COc1ccc(CNC(=O)c2sc3nc4n(c(=O)c3c2C)CCCC4)cc1	inactive: 86%
COc1cccc(Cc2nc3ccccc3nc2SCC(=O)Nc2cccc(C)c2)c1	inactive: 128%
Cc1ccc(Cn2cc(S(=O)(=O)c3cccc(C)c3)c(=O)c3cc(F)c(N4CCOCC4)cc32)cc1	inactive: 82%
O=C(Cc1ccccc1)Nc1sc2c(c1C(=O)Nc1ccccc1Cl)CCCCC2	inactive: 78%
COc1ccc2c(c1)CCc1c(C(=O)Nc3cc(OC)c(Cl)cc3OC)noc1-2	inactive: 129%
COC(=O)c1cc(Nc2nc3ccccc3nc2NS(=O)(=O)c2ccc(C)cc2)ccc1Cl	inactive: 47%
